# Experimental data as given in PubChem BioAssay AID588342 (National Center for Advancing Translational Sciences (NCATS), 2011).
# Hit rate of the full screen: of about 360,000 compounds, about 25,000 (6.9%) were called active. The inconclusive results got no clear call from the source; some entries with a clear call stand among them for comparison. Calls come from the whole dose curve; as a rule, active = well fitted inhibition curve with a large enough effect; inconclusive = small, poorly fitted or top-dose-only effect; inactive = flat fitted curve, though single readings scatter. Where the call is inconclusive, the potency comes from a doubtful curve fit.
# Target: Luciferin 4-monooxygenase (Photinus pyralis) (UniProt P08659)
# Assay: qHTS profiling assay for firefly luciferase inhibitor/activator using purifed enzyme and Km concentrations of substrates (counterscreen for miR-21 project); note: nearly all actives have a fitted effect of over 55% in size;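 for activity change, negative = inhibition: plate controls were vehicle for no effect and reference inhibitor for full effect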
# Conditions: purified FLuc, luminescence inhibition; series mostly up to 57.5 µM; activity change, negative = inhibition: at the top concentration
# Method in brief: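 Purified P. pyralis luciferase (10nM final) with 10uM D-luciferin and 10uM ATP (Km levels) in 50mM Tris acetate pH 7.5, 10mM Mg acetate, 0.01% Tween-20, 0.05% BSA; qHTS 6-point titration, ~60 µM downward; luminescence read.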
# Potency is the fitted concentration of half-maximal effect; tags give direction and shape of the fitted curve.
# UniProt P08659, sequence (P08659 whole entry, looked up): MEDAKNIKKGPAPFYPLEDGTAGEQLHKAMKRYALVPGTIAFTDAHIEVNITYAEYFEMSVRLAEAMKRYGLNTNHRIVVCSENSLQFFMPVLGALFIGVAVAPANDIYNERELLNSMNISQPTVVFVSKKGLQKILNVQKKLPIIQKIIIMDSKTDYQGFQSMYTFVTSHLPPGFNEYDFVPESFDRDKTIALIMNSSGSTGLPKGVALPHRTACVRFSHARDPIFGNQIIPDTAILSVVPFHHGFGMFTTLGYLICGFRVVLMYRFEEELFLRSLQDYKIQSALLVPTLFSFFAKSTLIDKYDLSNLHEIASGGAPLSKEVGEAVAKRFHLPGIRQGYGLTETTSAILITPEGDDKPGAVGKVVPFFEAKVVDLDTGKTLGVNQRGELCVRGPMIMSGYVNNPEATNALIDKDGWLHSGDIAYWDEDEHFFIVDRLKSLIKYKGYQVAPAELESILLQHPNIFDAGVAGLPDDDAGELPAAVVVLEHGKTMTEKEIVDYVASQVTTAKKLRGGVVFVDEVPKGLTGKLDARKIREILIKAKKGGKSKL
SMILES,Potency,"activity change, negative = inhibition"
CC1CCN(C(=O)CSc2nncn2-c2ccccn2)CC1,"inconclusive: 33.8 µM [inhibitor, partial curve, poor fit]",–
C=CCN(C(=O)Nc1ccc2oc(C)nc2c1)c1ccccc1,"inconclusive: 19 µM [inhibitor, partial curve]",–
O=C(Nc1cc(S(=O)(=O)N2CCOCC2)ccc1N1CCCC1)c1ccc2c(c1)S(=O)(=O)c1ccccc1C2=O,–,inactive: -19.6%
CC(C)Oc1ccc(CNC(=O)c2ccccc2NC(=O)c2nsc3ccccc23)cc1,"inconclusive: 23.9 µM [inhibitor, partial curve, poor fit]",–
O=C(NNC(=O)c1ccccc1O)c1ccc(-c2ccc([N+](=O)[O-])cc2)o1,"inconclusive: 33.8 µM [inhibitor, single point]",–
CCOC(=O)CCc1c(C)c2ccc(OCc3nn[nH]n3)cc2oc1=O,"inconclusive: 33.8 µM [inhibitor, partial curve, poor fit]",–
C/C(=N\NC(=O)c1c(Cl)cnn1C)c1cccc(NC(=O)C(C)C)c1,"inconclusive: 37.9 µM [inhibitor, partial curve, poor fit]",–
CC(=O)Nc1ccc(NC(=O)c2cc(-c3ccccc3)nc3ccccc23)cc1,"inconclusive: 15.1 µM [inhibitor, partial curve]",–
Cc1ccsc1C(=O)NNC(=O)COc1ccccc1Cl,"inconclusive: 26.9 µM [inhibitor, single point]",–
Cc1cccc(NC(=O)c2sc(NC(=O)c3ccco3)c(C#N)c2C)c1C,"inconclusive: 33.8 µM [inhibitor, single point]",–
O=C(NNC(=S)Nc1ccc(Cl)cc1Cl)c1ccncc1,"inconclusive: 23.9 µM [inhibitor, partial curve, poor fit]",–
Clc1ccccc1C1Nc2cccc3cccc(c23)N1,"inconclusive: 30.1 µM [inhibitor, partial curve, poor fit]",–
CCOc1cccc(/C=C/c2ccc3cccc(O)c3n2)c1OC,active: 4.78 µM,–
CCOC(=O)/C=C/C(=O)N1CCN(C(=O)/C=C/C(=O)OCC)CC1,–,inactive: -2.47%
CCc1nc2scc(-c3ccc(C)cc3)c2c(=O)n1N,"inconclusive: 26.9 µM [inhibitor, single point]",–
O=C(Cc1ccccc1)Nc1ccc(NC(=O)c2ccccc2)nc1,"inconclusive: 15.1 µM [inhibitor, partial curve]",–
Cc1cc(NC(=O)c2sccc2C)n(-c2nc3ccccc3[nH]2)n1,"inconclusive: 30.1 µM [inhibitor, partial curve, poor fit]",–
Cc1ccc(C(=O)Nc2ccc(N3CCN(C(=O)c4ccco4)CC3)cc2)c(Cl)c1,"inconclusive: 26.9 µM [inhibitor, partial curve, poor fit]",–
O=C(NC1CC1)c1ccc2c(Cl)c3c(nc2c1)CCCC3,active: 13.5 µM,–
Cn1cc(CNC(=O)/C=C/c2ccc(Cl)cc2)cn1,"inconclusive: 37.9 µM [inhibitor, partial curve, poor fit]",–
Cc1ccc(/C=C2\CCC3=C2OC(N)=C(C#N)C3c2ccc(C)cc2)cc1 (centres undefined),"inconclusive: 30.1 µM [inhibitor, partial curve, poor fit]",–
O=C(COc1ccccc1)NNC1=NS(=O)(=O)c2ccccc21,active: 23.9 µM,–

SMILES,Potency,"activity change, negative = inhibition"
COC(=O)c1sc2cccc(F)c2c1S(=O)(=O)NCc1ccccc1Cl,–,inactive: -3.5%
Cc1cnc(NC(=O)c2ccc3c(c2)C(=O)N(Cc2cccnc2)C3=O)s1,active: 1.69 µM,–
CN(C(=O)CSc1nnc(-c2ccc3c(c2)OCO3)o1)C1CCS(=O)(=O)C1 (centres undefined),–,inactive: -0.842%
COc1cccc(/C=N/NC(=O)c2ccc([N+](=O)[O-])cc2Cl)c1O,active: 19 µM,–
Cc1ccc([C@@H]2[C@@H]3C(=O)N(c4ccccc4)C(=O)[C@@H]3[C@]3(C)C(=O)N(CC4CC4)CC(=O)N23)o1,–,inactive: -2.93%
COc1ccc(C)c(NC(=O)NCCc2cnc[nH]2)c1,–,inactive: 0.0989%
Fc1cccc(Cl)c1/C=N/n1c(-c2cccnc2)n[nH]c1=S,"inconclusive: 23.9 µM [inhibitor, partial curve, poor fit]",–
CCOC(=O)c1cc(S(=O)(=O)N(C)c2ccccc2)[nH]n1,"inconclusive: 26.9 µM [inhibitor, partial curve, poor fit]",–
Cc1ccc(CNC(=O)c2cc(NS(=O)(=O)c3ccc(C)cc3)ccn2)cc1,"inconclusive: 9.53 µM [inhibitor, partial curve]",–
CCOc1ccc(/C=N/Nc2cc(N3CCOCC3)nc(C)n2)c(O)c1,–,inactive: 1.01%
COc1ccc(NC(=O)Cc2coc3cc(C)c(C(C)C)cc23)cc1S(=O)(=O)N1CCOCC1,"inconclusive: 37.9 µM [inhibitor, single point]",–
COc1ccc(/C=N/NC(=O)c2ccn[nH]2)cc1COc1ccc([N+](=O)[O-])c(C)c1,"inconclusive: 16.9 µM [inhibitor, partial curve]",–
O=C(Nc1ccccc1)Nc1cc([N+](=O)[O-])ccc1F,"inconclusive: 37.9 µM [inhibitor, single point]",–
Cc1cccc(NC(=O)Cn2c(=O)n(CC3CCC(C(=O)NCCc4ccccc4)CC3)c(=O)c3ccccc32)c1C (centres undefined),–,inactive: -1.23%
Cc1nn(-c2ccc(N3CCCC3)nn2)c(C)c1CCC(=O)N1CCN(c2ccc(F)cc2)CC1,–,inactive: 0.37%
FC(F)Sc1ccc(NC(=S)NC2CCCCC2)cc1,active: 10.7 µM,–
O=C(Nc1ccc2c(c1)OCO2)Nc1ccc(F)cc1F,active: 6.01 µM,–
COc1ccc(/C(C)=N/Nc2cc(C(F)(F)F)ccc2Cl)c(OC)c1,–,inactive: 3.38%
CCOc1ccc(-c2cc(CCCC(=O)NCCc3ccc(SC)cc3)no2)cc1,active: 12 µM,–
Cc1ccc(-c2noc(CCC(=O)Nc3cccc(C#N)c3)n2)cc1,"inconclusive: 26.9 µM [inhibitor, single point]",–
COC(=O)c1ccc(NC(=O)CN(C)S(=O)(=O)c2ccc3c(c2)CCCC(=O)N3)cc1,–,inactive: 2.61%
COC(=O)C(C)Oc1ccc2c(c1)O/C(=C\c1cccc(Br)c1)C2=O (centres undefined),–,inactive: -19.3%
